Reference: patent publication US20250250287A1, “HETEROCYCLIC COMPOUNDS, COMPOSITIONS THEREOF, AND METHODS OF TREATMENT THEREWITH” (BeiGene Switzerland GmbH, priority 2022, published 2025)

Molecular target: GST-tagged GDP-loaded KRAS G12V (amino acids 1-169) (Homo sapiens, UniProt P01116, G12V)
Experiment: biochemical

SMILES	IC50
C#Cc1c(F)ccc2cc(O)cc(-c3nc4c5c(nc(OCC67CCCN6CC(F)C7)nc5c3F)N3CCC3CO4)c12 (single isomer, unassigned) [Example 18]	1.5 nM
C#Cc1c(F)ccc2cc(O)cc(-c3nc4c5c(nc(OCC67CCCN6CC(F)C7)nc5c3F)N3CCC3CO4)c12 (single isomer, unassigned) [Example 20]	0.57 nM
N#Cc1c(N)sc2c(F)ccc(-c3cc4c5c(nc(OC[C@@]67CCCN6C[C@H](F)C7)nc5c3F)N3CCC[C@H]3CO4)c12 [Example 1, 2-amino-7-fluoro-4-((S)-4-fluoro-2-(((2R,7aS)-2-fluorotetrahydro-1H-pyrrolizin-7a(5H)-yl)methoxy)-8a,9,10,11-tetrahydro-8H-pyrrolo[2′,1′:3,4][1,4]oxazepino[5,6,7-de]quinazolin-5-yl)benzo[b]thiophene-3-carbonitrile]	1.7 nM
C#Cc1c(F)ccc2cc(O)cc(-c3cc4c5c(nc(OC[C@@]67CCCN6C[C@H](F)C7)nc5c3F)N3CC(F)(F)C[C@H]3CO4)c12 [Example 4, 5-ethynyl-6-fluoro-4-((S)-2,2,8-trifluoro-6-(((2R,7aS)-2-fluorotetrahydro-1H-pyrrolizin-7a(5H)-yl)methoxy)-2,3,12,12a-tetrahydro-1H-pyrrolo[2′,1′:3,4][1,4]oxazepino[5,6,7-de]quinazolin-9-yl)naphthalen-2-ol]	10 nM
N#Cc1c(N)sc2c(F)ccc(-c3cc4c5c(nc(OC[C@@]67CCCN6C[C@H](F)C7)nc5c3F)N3CCC[C@@H]3CCO4)c12 [Example 5, 2-amino-7-fluoro-4-((R)-8-fluoro-6-(((2R,7aS)-2-fluorotetrahydro-1H-pyrrolizin-7a(5H)-yl)methoxy)-1,2,3,12,13,13a-hexahydropyrrolo[1′,2′:5,6][1,5]oxazocino[4,3,2-de]quinazolin-9-yl)benzo[b]thiophene-3-carbonitrile]	3.6 nM
C#Cc1c(F)ccc2cc(O)cc(-c3cc4c5c(nc(OC[C@@]67CCCN6C[C@H](F)C7)nc5c3F)N3CCCCC3CCO4)c12 (stereo partly drawn) [Example 6, 5-ethynyl-6-fluoro-4-(1-fluoro-13-(((2R,7aS)-2-fluorotetrahydro-1H-pyrrolizin-7a(5H)-yl)methoxy)-6,6a,7,8,9,10-hexahydro-5H-pyrido[1′,2′:5,6][1,5]oxazocino[4,3,2-de]quinazolin-2-yl)naphthalen-2-ol]	0.76 nM
N#Cc1c(N)sc2c(F)ccc(-c3c(Cl)c4c5c(nc(OC[C@@]67CCCN6C[C@H](F)C7)nc5c3F)N3CCC[C@@H]3CCO4)c12 [Example 7, 2-amino-4-((13aR)-10-chloro-8-fluoro-6-(((2R,7aS)-2-fluorotetrahydro-1H-pyrrolizin-7a (5H)-yl)methoxy)-1,2,3,12,13,13a-hexahydropyrrolo[1′,2′:5,6][1,5]oxazocino[4,3,2-de]quinazolin-9-yl)-7-fluorobenzo[b]thiophene-3-carbonitrile]	0.48 nM
Nc1cc(Cl)c(C(F)(F)F)c(-c2nc3c4c(nc(OC[C@@]56CCCN5C[C@H](F)C6)nc4c2F)N2CCC[C@H]2CO3)c1 [Example 9, 3-chloro-5-((S)-7-fluoro-5-(((2R,7aS)-2-fluorotetrahydro-1H-pyrrolizin-7a(5H)-yl)methoxy)-2,3,11,11a-tetrahydro-1H-10-oxa-3a,4,6,9-tetraazanaphtho[1,8-e]azulen-8-yl)-4-(trifluoromethyl)aniline]	6.4 nM
Nc1cc(Cl)c(C(F)(F)F)c(-c2nc3c4c(nc(OC[C@@]56CCCN5C[C@H](F)C6)nc4c2F)N2CCC[C@@H]2CCO3)c1 [Example 11, 3-chloro-5-((R)-7-fluoro-5-(((2R,7aS)-2-fluorotetrahydro-1H-pyrrolizin-7a(5H)-yl)methoxy)-1,2,3,11,12,12a-hexahydro-10-oxa-3a,4,6,9-tetraazacyclopenta[4,5]cycloocta[1,2,3-de]naphthalen-8-yl)-4-(trifluoromethyl)aniline]	1.6 nM
Cc1cc(N)cc(-c2nc3c4c(nc(OC[C@@]56CCCN5C[C@H](F)C6)nc4c2F)N2CCC[C@@H]2CCO3)c1C(F)(F)F [Example 12, 3-((R)-7-fluoro-5-(((2R,7aS)-2-fluorotetrahydro-1H-pyrrolizin-7a(5H)-yl)methoxy)-1,2,3,11,12,12a-hexahydro-10-oxa-3a,4,6,9-tetraazacyclopenta[4,5]cycloocta[1,2,3-de]naphthalen-8-yl)-5-methyl-4-(trifluoromethyl)aniline]	3.2 nM
Nc1cc(Cl)c(C(F)(F)F)c(-c2nc3c4c(nc(OC[C@@]56CCCN5C[C@H](F)C6)nc4c2F)N2CCC[C@@H]2CO3)c1 [Example 13, 3-chloro-5-((R)-7-fluoro-5-(((2R,7aS)-2-fluorotetrahydro-1H-pyrrolizin-7a(5H)-yl)methoxy)-2,3,11,11a-tetrahydro-1H-10-oxa-3a,4,6,9-tetraazanaphtho[1,8-ef]azulen-8-yl)-4-(trifluoromethyl)aniline]	7.4 nM
Nc1cc(Cl)c(C(F)(F)F)c(-c2nc3c4c(nc(OC[C@@]56CCCN5C[C@H](F)C6)nc4c2F)N2CCCC[C@H]2CO3)c1 [Example 15, 3-chloro-5-((S)-1-fluoro-11-(((2R,7aS)-2-fluorotetrahydro-1H-pyrrolizin-7a(5H)-yl)methoxy)-5,5a,6,7,8,9-hexahydro-4-oxa-3,9a,10,12-tetraazabenzo[4,5]cyclohepta[1,2,3-de]naphthalen-2-yl)-4-(trifluoromethyl)aniline]	4.8 nM
Nc1cc(Cl)c(C(F)(F)F)c(-c2nc3c4c(nc(OC[C@@]56CCCN5C[C@H](F)C6)nc4c2F)N2CCC(F)C2CO3)c1 (stereo partly drawn) [Example 17, 3-chloro-5-(1,7-difluoro-5-(((2R,7aS)-2-fluorotetrahydro-1H-pyrrolizin-7a(5H)-yl)methoxy)-2,3,11,11a-tetrahydro-1H-10-oxa-3a,4,6,9-tetraazanaphtho[1,8-ef]azulen-8-yl)-4-(trifluoromethyl)aniline]	8.9 nM
C#Cc1c(F)ccc2cc(O)cc(-c3nc4c5c(nc(OC[C@@]67CCCN6C[C@H](F)C7)nc5c3F)N3C[C@H](F)C[C@H]3CO4)c12 [Example 19, 4-((2R,11aS)-2,7-difluoro-5-(((2R,7aS)-2-fluorotetrahydro-1H-pyrrolizin-7a(5H)-yl)methoxy)-2,3,11,11a-tetrahydro-1H-10-oxa-3a,4,6,9-tetraazanaphtho[1,8-ef]azulen-8-yl)-5-ethynyl-6-fluoronaphthalen-2-ol]	0.71 nM
Nc1cc(Cl)c(C(F)(F)F)c(-c2nc3c4c(nc(OC[C@@]56CCCN5C[C@H](F)C6)nc4c2F)N2CC[C@H]2CCO3)c1 [Example 22, 3-chloro-5-((S)-6-fluoro-4-(((2R,7aS)-2-fluorotetrahydro-1H-pyrrolizin-7a(5H)-yl)methoxy)-1,10,11,11a-tetrahydro-2H-9-oxa-2a,3,5,8-tetraazacyclobuta[4,5]cycloocta[1,2,3-de]naphthalen-7-yl)-4-(trifluoromethyl)aniline]	6 nM
Nc1cc(Cl)c(C(F)(F)F)c(-c2nc3c4c(nc(OC[C@@]56CCCN5C[C@H](F)C6)nc4c2F)N2CC[C@@H]2CCO3)c1 [Example 23, 3-chloro-5-((R)-6-fluoro-4-(((2R,7aS)-2-fluorotetrahydro-1H-pyrrolizin-7a(5H)-yl)methoxy)-1,10,11,11a-tetrahydro-2H-9-oxa-2a,3,5,8-tetraazacyclobuta[4,5]cycloocta[1,2,3-de]naphthalen-7-yl)-4-(trifluoromethyl)aniline]	1.5 nM
